# Source: the supplement of paper PMC12217912
# Some of the results follow. The full chains were built here from the parent and the listed change. Values near 0.05 are background.
# B1: TEV protease; numbered along this chain (parent)
# chain: MGESLFKGPRDYNPISSSICHLTNESDGHTTSLYGIGFGPFIITNKHLFRRNNGTLVVQSLHGVFKVKDTTTLQQHLVDGRDMIIIRMPKDFPPFPQKLKFREPQREERICLVTTNFQTKSMSSMVSDTSCTFPSGDGIFWKHWIQTKDGQCGSPLVSTRDGFIVGIHSASNFTNTNNYFTSVPKNFMELLTNQEAQQWVSGWRLNADSVLWGGHKVFMVKPEEPFQPVKEATQL
# Variants of: B1
# Experiment: raw area under fraction-flipped curve 0-4 h after induction (AUC4h, not background-subtracted), DNA-recorder readout of cleavage of the substrate (dimensionless); higher = more cleavage of the substrate by the protease variant
# Details: temperature: 34 °C; time window: 0-4 h after rhamnose induction
# Experimental: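 In vivo DNA recorder in E. coli TOP10(DE3) ΔrhaA at 34 °C. Each TEVp single-site mutant (parent TEVp 0) is paired with a single-site variant of the 7-mer TEVs (canonical ENLYFQ|S). The substrate sits between flexible linkers in a Bxb1-sfGFP-TEVs-SsrA fusion, so cleavage stabilises Bxb1 and speeds flipping of a recombination array, read by NGS. The value is the raw area under the fraction-flipped curve over 0-4 h after rhamnose induction (AUC4h), with ≥20 reads per time point. It is not background-subtracted; inactive controls average about 0.047.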
# 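Note: Bxb1 expression induced with 0.2% (w/v) L-rhamnose at OD600 near 0.5, cultures sampled hourly, flipped fraction per protease–substrate barcode pair counted by paired-end Illumina sequencing.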
Variant,area with substrate ENLYCQS,area with substrate ENLYDQS,area with substrate ENLYEQS,area with substrate ENLYGQS,area with substrate ENLYHQS,area with substrate ENLYIQS,area with substrate ENLYKQS,area with substrate ENLYMQS,area with substrate ENLYNQS,area with substrate ENLYPQS,area with substrate ENLYQQS,area with substrate ENLYRQS,area with substrate ENLYSQS,area with substrate ENLYTQS,area with substrate ENLYWQS,area with substrate ENLYYQS,area with substrate ENLYVQS,area with substrate ENLYLQS
MGESLFKGPRDYNPISSSICHLTNESDVHTTSLYGIGFGPFIITNKHLFRRNNGTLVVQSLHGVFKVKDTTTLQQHLVDGRDMIIIRMPKDFPPFPQKLKFREPQREERICLVTTNFQTKSMSSMVSDTSCTFPSGDGIFWKHWIQTKDGQCGSPLVSTRDGFIVGIHSASNFTNTNNYFTSVPKNFMELLTNQEAQQWVSGWRLNADSVLWGGHKVFMVKPEEPFQPVKEATQL [G28V],0.0565,0.044,0.0692,0.0638,0.061,0.087,0.0235,0.0714,0.0742,0.0623,0.0619,0.0562,0.0604,0.0735,0.062,0.0664,,
MGESLFKGPRDYNPISSSICHLTNESDGHVTSLYGIGFGPFIITNKHLFRRNNGTLVVQSLHGVFKVKDTTTLQQHLVDGRDMIIIRMPKDFPPFPQKLKFREPQREERICLVTTNFQTKSMSSMVSDTSCTFPSGDGIFWKHWIQTKDGQCGSPLVSTRDGFIVGIHSASNFTNTNNYFTSVPKNFMELLTNQEAQQWVSGWRLNADSVLWGGHKVFMVKPEEPFQPVKEATQL [T30V],0.0991,0.0593,0.0869,0.0797,0.0815,0.118,0.062,0.0666,,0.0663,0.0608,,,,0.0937,,0.123,
MGESLFKGPRDYNPISSSICHLTNESDGHTLSLYGIGFGPFIITNKHLFRRNNGTLVVQSLHGVFKVKDTTTLQQHLVDGRDMIIIRMPKDFPPFPQKLKFREPQREERICLVTTNFQTKSMSSMVSDTSCTFPSGDGIFWKHWIQTKDGQCGSPLVSTRDGFIVGIHSASNFTNTNNYFTSVPKNFMELLTNQEAQQWVSGWRLNADSVLWGGHKVFMVKPEEPFQPVKEATQL [T31L],0.114,0.0428,0.0549,0.0612,0.0748,,0.0568,,0.0788,0.0906,0.0596,,,,,,0.13,
MGESLFKGPRDYNPISSSICHLTNESDGHTTSLYGIGFPPFIITNKHLFRRNNGTLVVQSLHGVFKVKDTTTLQQHLVDGRDMIIIRMPKDFPPFPQKLKFREPQREERICLVTTNFQTKSMSSMVSDTSCTFPSGDGIFWKHWIQTKDGQCGSPLVSTRDGFIVGIHSASNFTNTNNYFTSVPKNFMELLTNQEAQQWVSGWRLNADSVLWGGHKVFMVKPEEPFQPVKEATQL [G39P],0.0232,0.0258,0.0463,0.0542,0.0412,0.0468,0.0362,0.0435,0.0354,0.0426,0.0623,,,0.0347,0.0478,0.053,,0.0542
MGESLFKGPRDYNPISSSICHLTNESDGHTTSLYGIGFGPCIITNKHLFRRNNGTLVVQSLHGVFKVKDTTTLQQHLVDGRDMIIIRMPKDFPPFPQKLKFREPQREERICLVTTNFQTKSMSSMVSDTSCTFPSGDGIFWKHWIQTKDGQCGSPLVSTRDGFIVGIHSASNFTNTNNYFTSVPKNFMELLTNQEAQQWVSGWRLNADSVLWGGHKVFMVKPEEPFQPVKEATQL [F41C],0.0771,0.0621,0.0685,0.0676,0.0637,0.119,0.0587,0.0493,0.0636,0.0724,0.061,0.0697,0.064,0.0785,0.0945,0.0688,,
MGESLFKGPRDYNPISSSICHLTNESDGHTTSLYGIGFGPSIITNKHLFRRNNGTLVVQSLHGVFKVKDTTTLQQHLVDGRDMIIIRMPKDFPPFPQKLKFREPQREERICLVTTNFQTKSMSSMVSDTSCTFPSGDGIFWKHWIQTKDGQCGSPLVSTRDGFIVGIHSASNFTNTNNYFTSVPKNFMELLTNQEAQQWVSGWRLNADSVLWGGHKVFMVKPEEPFQPVKEATQL [F41S],0.0773,0.0593,0.054,0.0373,0.0663,0.112,0.0517,0.0619,0.0591,0.0463,0.0634,0.0616,0.0615,0.0573,0.0701,,0.0841,
MGESLFKGPRDYNPISSSICHLTNESDGHTTSLYGIGFGPFIITNKHLFQRNNGTLVVQSLHGVFKVKDTTTLQQHLVDGRDMIIIRMPKDFPPFPQKLKFREPQREERICLVTTNFQTKSMSSMVSDTSCTFPSGDGIFWKHWIQTKDGQCGSPLVSTRDGFIVGIHSASNFTNTNNYFTSVPKNFMELLTNQEAQQWVSGWRLNADSVLWGGHKVFMVKPEEPFQPVKEATQL [R50Q],0.0911,0.07,0.0688,0.0734,0.0739,,0.0647,,0.0699,0.0837,0.0555,0.0698,,,0.0998,,0.142,
MGESLFKGPRDYNPISSSICHLTNESDGHTTSLYGIGFGPFIITNKHLFRRNNGKLVVQSLHGVFKVKDTTTLQQHLVDGRDMIIIRMPKDFPPFPQKLKFREPQREERICLVTTNFQTKSMSSMVSDTSCTFPSGDGIFWKHWIQTKDGQCGSPLVSTRDGFIVGIHSASNFTNTNNYFTSVPKNFMELLTNQEAQQWVSGWRLNADSVLWGGHKVFMVKPEEPFQPVKEATQL [T55K],0.0782,0.0608,0.0599,0.0643,0.0658,,0.0749,0.0772,0.0833,0.0757,0.054,0.0612,0.069,0.0646,0.0504,,0.14,
